Data reported in the RNAGym collection of RNA variant scans (doi:10.1073/pnas.2313332121).
Variants at the floor of the assay are shown more often than the library holds them.

B1: TPR 5TU (parent)
chain: GGAUCUUCUCGAUCUAACAAAAAAGACAAAUCUGCCACAAAGCUUGAGAGCAUCUUCGGAUGCAGAGGCGGCAGCCUUCGGUGGCGCGAUAGCGCCAACGUUCUCAACUAUGACACGCAAAACGCGUGCUCCGUUGAAUGGAGUUUAUCAUG

Variants of: B1
Assay: polymerase ribozyme fitness, log enrichment relative to wild type (log ratio); higher = more active; in vitro selection for triplet polymerase activity
In short: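 One round of in vitro selection, in triplicate, was applied to PCR-built, transcribed mutant libraries of each subunit of a heterodimeric triplet polymerase ribozyme. The steps were annealing with a biotinylated primer, partner subunit and triplets, incubation frozen at −7 °C, gel excision of extended constructs, streptavidin-bead capture and RT-PCR. Fitness is the logarithm, base 2, of genotype enrichment over wild-type enrichment from inverse-variance-weighted replicate averages of Illumina-sequenced inputs and outputs, keeping genotypes with ≥10 input reads and ≥1 read per output.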

Variant | polymerase ribozyme fitness (log ratio)
A24U U61A C76G G88A C95G | ≤ -4.2
A24C A89U C95G U111C | ≤ -4.2
A23U C54G U56C C57U C69U G94A U130C | ≤ -4.2
G25C A64G A113U | ≤ -4.2
A23U G65U G71C U102G C105A A110U G136U | ≤ -4.2
A24U A37C G59U G62U G80U U82A C118U C132G U134C | ≤ -4.2
A23U G42C C75U U82G G84U C96A | ≤ -4.2
A24G G25U U31C U55A C87G U102G | ≤ -4.2
A24U G74C U104G C118A A121G | ≤ -4.2
A23U U77A A110U | ≤ -4.2
A24G C27G G46A C85U U134G G143C U151G | ≤ -4.2
A23G C85U C93U A138G | ≤ -4.2
A24G C57U | -3.7
A23G C85U C95U G133U | -4
A24G A73G C116A A138C U148G | ≤ -4.2
A24U U53A G80A C85U A142C | ≤ -4.2
A24G A37C C85G C125G | ≤ -4.2
A24C C27A C35G C95G C96G A142C | ≤ -4.2
A24U A41C C76U G80A C85U A121G G141C U144G | ≤ -4.2
A24C A64C | ≤ -4.2
A24U C32U C35A G42C G68A C76U U144A | ≤ -4.2
A24U G68C G81C G94A A98C U104C | ≤ -4.2
G25C A64G G86U G124C G126U G136A | ≤ -4.2
A24C G50U G71A A73U C93G A106U C123G G128U G143C | ≤ -4.2

Variant | polymerase ribozyme fitness (log ratio)
A24U U45G G92C | -2.88
A24U G58C U104A G141U | -1.93
G25A G42C A52G C95U | ≤ -4.2
G25A C93G A119U | ≤ -4.2
G25C A26G C51U C85U U104A A107C | ≤ -4.2
A24G G46U U55A A73G G81A G92A G140U | ≤ -4.2
A24C A29C A37U G59A U61G C87A C103G G117U | ≤ -4.2
A23U A28U C43A G88A C125G | ≤ -4.2
A24G A52C G58C G70U C132U | ≤ -4.2
A24G C69U C75U U82G U148C | ≤ -4.2
A24C A98U | ≤ -4.2
A23U A29C C51U G68U C72G G94C G136A A147C | ≤ -4.2
A24C A37C C72U G92A A107G | ≤ -4.2
A24G U31G A64C C95A A107G A113C U146G | ≤ -4.2
A24G C51G G74C A91U U101A U104G U130A A142U | ≤ -4.2
A23U A40G U77A G84A U146G | ≤ -4.2
A24C C69G C85U G117U G141C A150U U151G | ≤ -4.2
A24U U45A U53A G81U C87G A137G G143U U146A | ≤ -4.2
A23U C93A A97G A113G G124U | ≤ -4.2
A23U U31A C87A G92C | ≤ -4.2
A24U G94A G143U | -3.4
A23U A49U C63G G81A G83C | ≤ -4.2
A23U A39U G84U G94A | ≤ -4.2
A24U A30G A37C U56G G86U G117U | ≤ -4.2

Variant | polymerase ribozyme fitness (log ratio)
G25C A64G | ≤ -4.2
A24G C96G A137U | ≤ -4.2
A24U G34U A47C C95G C108A A110G A138C A147C G152A | ≤ -4.2
A23U G48A A52G U53C C54U G86A | ≤ -4.2
A24U U53G G92C C96G C118G | ≤ -4.2
A23U A29C U45A G46U C51A C93G C95G A121C U139A C149A | ≤ -4.2
A24G C32G U78C G126U U130G | ≤ -4.2
A24G G80C G83C A115U U134A | ≤ -4.2
G25C C93A C95U A107C | ≤ -4.2
A24U A47C G48C C85G G88C | ≤ -4.2
A24G C35U C118G U135G | ≤ -4.2
A24U A41C U45A G46C A49C G86A | -3.99
A23U A26U | ≤ -4.2
A24G C51G A138C A142C | ≤ -4.2
A24C G25C G92A C108U | ≤ -4.2
A24U G83A A107U G152A | ≤ -4.2
A23U G83A C85A | ≤ -4.2
A24C A29G C93U G136U A137G | ≤ -4.2
G25A G46C G83C A89U C103G G140A | ≤ -4.2
A24G C85U U102G | ≤ -4.2
A24G C36G | ≤ -4.2
G25C C132U | -3.65
A24U A60G C85U A97C C129U | -0.602
A23G G48U G65C C72U G81C G83U | ≤ -4.2

Variant | polymerase ribozyme fitness (log ratio)
A24G C36U A40G G59C | ≤ -4.2
A23G U55A C87U | -2.98
G25A A28U A52G C85G C99G U102G G136U G141A U145A U146A | ≤ -4.2
G25A U82C C105G A121U | -4.07
A23G U127G A137U | ≤ -4.2
A24C A29C G68C U148G | ≤ -4.2
A24G C87A C105U C149G | ≤ -4.2
A24U C96U | 0.0587
A24U A39C G92U U144G U148G | ≤ -4.2
G25C C85U A98U G126A U146C A147C | ≤ -4.2
A24G C75G G84A C132U | ≤ -4.2
A24C C72U C85G C131G G133U | ≤ -4.2
A23G C96A C125U C129U | ≤ -4.2
A24G C85U C96U G117C U151A | ≤ -4.2
A23U G50U G67C C72G G83C G117C U148C | ≤ -4.2
A24C G34U U44A A60G G83A C85G G88U A147U | ≤ -4.2
A23U C87G | ≤ -4.2
A23G G25U C27A A41C A47G A49C G71C C116G A120C G141C | ≤ -4.2
A24C C87A A119C | ≤ -4.2
A24U C27U U55A C63G C93G A113U C114U G141C | ≤ -4.2
G25C C79G U145C | ≤ -4.2
A23U A41C C43G C85U G88A C118U G133A A150C | ≤ -4.2
A23G C72U | -3.74
A24G C116U A138C | ≤ -4.2

Variant | polymerase ribozyme fitness (log ratio)
A24U C95U C96G C99G U104G A106G A137G | ≤ -4.2
A23U G25C A52C U55A A122C | ≤ -4.2
A24G A29U C75U C79U C93U A106G A113G | ≤ -4.2
G25C A26C A28C A49U C96U | ≤ -4.2
A24G C85A U146C | ≤ -4.2
A24C G65A G84C A97G G100U C108G G141C | ≤ -4.2
A24C U31A A40C G59C A66C A110C C114A U127G | ≤ -4.2
A24G C87A C108A | ≤ -4.2
A24U A29U C32G G42A U53C U55A C95A C99U | ≤ -4.2
A23U A41C A49C U56A C99A C105U | ≤ -4.2
G25C A119C | -2.68
A24U A40C A98U | 0.235
A23U G50A A60C A66U C85U C95G A122C | ≤ -4.2
A24U C54A G86A | -3.38
A23G G46C G50C C51U C69A G80U U102A C149G A150C | ≤ -4.2
A24C A29G C51U C95G C96U C114A U146C | ≤ -4.2
A23U A29C C36U G81A A91G A107U | ≤ -4.2
A23U G81U C85G G143U | ≤ -4.2
G25C C27U U44G C72G C76A C87G | ≤ -4.2
A23G A47G C75G C85G A122C G128U | ≤ -4.2
G25A C54A A66U C76G C125G U145A | ≤ -4.2
A24G C54A A106G | ≤ -4.2
A24U A29G A47U U55A A73C U77G G81A A91G | ≤ -4.2
A23U U55C C76U A137C A147C | ≤ -4.2

Variant | polymerase ribozyme fitness (log ratio)
G25C A66G C85A | ≤ -4.2
A23U A66C G71C G84U | ≤ -4.2
A24U A66G | -3.16
A24U U45A G83A G88C C118G C129G U145G | ≤ -4.2
A24C G84A G133A | ≤ -4.2
A24U A29G C118U | ≤ -4.2
A23G G50C A64U C93A A120U | ≤ -4.2
A24C C27U U33A A49C U53A C85U | ≤ -4.2
A23U A39C C96U G112A A150G | ≤ -4.2
A24U C63A | 1.21
A23U C35U A37C U55G G58C C63A G94A G117A G128A A147U | ≤ -4.2
A23U U109A | ≤ -4.2
A24U C35A A41C G88C | ≤ -4.2
A24U U53A U55A G68C C76A C85G | ≤ -4.2
G25A A26G C85G G100A C114A A138U | ≤ -4.2
A24G U53A C63U C114G U139A G143A A147G | ≤ -4.2
A24G A40C U55G A97U | ≤ -4.2
A24U C38U G74C U102A U144G | ≤ -4.2
A23U U55A C57U G68U A73G G80C G94U U104C | ≤ -4.2
A24G A30U G42U C72U A91G A120C | ≤ -4.2
A23U A37U G71U A89C C125A G136U | ≤ -4.2
A23U A30G A41C A47G U53G U56A C75A C123G C125A | ≤ -4.2
A23U U55A G88A C114A G136C | ≤ -4.2
A24U C93U A142C | -2.21

Variant | polymerase ribozyme fitness (log ratio)
G25C A41C U55A U61A C116U U144A | ≤ -4.2
G25C C76U C79G C93A C118U | ≤ -4.2
A23U C32U A115G G124C G141C | ≤ -4.2
A23U A64C G67A G81C | ≤ -4.2
G25C C75A U104A A119U U134G U135A | ≤ -4.2
A23U G58C G88U G136A | ≤ -4.2
A23U C79A C87A C99U | ≤ -4.2
A23G G46A U56A C87A G141C | ≤ -4.2
G25C A40U G58U G67U C85A A150U | ≤ -4.2
A24C G65A G84C A97G G100U C108G | ≤ -4.2
A23U C85U C96G A122G | ≤ -4.2
A24U C36G A37C G67C C95A A106C A107C C108G U134G U145C | ≤ -4.2
A24U A40C A47G C51G A52U G86A | ≤ -4.2
A23U C38A U45G G50C U56A C93G G117A | ≤ -4.2
A24G A29C A37G G46U C57U C76U A122U A138G U144G U151C | ≤ -4.2
A24U G62U C96A G117A | -1.86
G25A A60G G80U G83A U102G A113U C125A | ≤ -4.2
A23G C38U A49C U61A G83A A107C C116A | ≤ -4.2
A24U A29G A52G A91U G126U U144G | ≤ -4.2
A23U A26G G42A G84A A97U C116A A120U U146G U148G | ≤ -4.2
A24C A26C G92A U102G | ≤ -4.2
A23U G48C C54A C75G G80C C96U G140A | ≤ -4.2
A24G A115G U127A | ≤ -4.2
